Test results as given in the supplement of paper PMC3334620.
Whole data set: some 33,000 sequences, median “E-score (-0.5 to 0.5)” near -0.012, cut for the highest 2% near 0.27. The list shows a part of the results.

Target: T1, Vhr1 (UniProt P40522)
T1 sequence: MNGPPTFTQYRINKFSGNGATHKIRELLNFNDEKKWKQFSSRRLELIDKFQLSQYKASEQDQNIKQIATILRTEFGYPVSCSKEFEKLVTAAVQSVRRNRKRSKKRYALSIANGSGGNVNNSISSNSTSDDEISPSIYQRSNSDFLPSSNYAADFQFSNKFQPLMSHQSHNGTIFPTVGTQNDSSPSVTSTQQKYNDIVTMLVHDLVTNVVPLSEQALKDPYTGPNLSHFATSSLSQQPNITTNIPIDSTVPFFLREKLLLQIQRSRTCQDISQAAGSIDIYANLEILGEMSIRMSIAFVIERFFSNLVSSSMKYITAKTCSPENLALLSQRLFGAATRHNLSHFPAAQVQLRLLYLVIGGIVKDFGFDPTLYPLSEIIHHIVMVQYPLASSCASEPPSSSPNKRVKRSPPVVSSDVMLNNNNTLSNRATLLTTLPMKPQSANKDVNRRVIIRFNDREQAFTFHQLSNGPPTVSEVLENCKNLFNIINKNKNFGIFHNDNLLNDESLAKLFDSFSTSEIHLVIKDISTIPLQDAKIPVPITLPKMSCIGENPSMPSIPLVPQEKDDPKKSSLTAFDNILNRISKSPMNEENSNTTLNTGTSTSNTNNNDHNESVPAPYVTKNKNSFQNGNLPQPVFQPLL
Assay: PBM E-score (8-mer binding enrichment) (E-score (-0.5 to 0.5)); higher = stronger / more preferred TF binding; most listed sequences are background and not binding sites
Conditions: protein concentration: 200 nM; construct: GST-full length
Outline: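 Full-length yeast transcription factors or their DNA-binding domains, GST-tagged and expressed with PURExpress, were applied at about 100-200 nM to universal all-10-mer Agilent arrays. These arrays had been made double-stranded by primer extension on fresh or once-stripped slides. Detection used fluorescent anti-GST, normalisation used masliner, and E-scores for ungapped eight-base words pooled with reverse complements came from the Universal PBM Analysis Suite.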

Row | Sequence | PBM E-score
1 | ACCCAAAG | -0.174
2 | GTGTAGCA | -0.00447
3 | CGGGAGCC | 0.0751
4 | CCTGTCCG | 0.00199
5 | AAGGCAGC | -0.132
6 | ACATATTG | 0.129
7 | CACCCGGG | 0.0553
8 | CCAGAAAG | -0.162
9 | CGTCAACA | -0.0112
10 | AGCTTAGA | -0.098
11 | AGGTGATA | 0.0194
12 | CAAGAGTG | -0.185
13 | TACGAAGA | -0.0938
14 | AGCTTACT | -0.0121
15 | GGTGTTTA | 0.0565
16 | CCGAGAGG | -0.177
17 | GTTCGGGA | 0.0974
18 | CAGCCTCG | 0.142
19 | GAGCAAGA | 0.0215
20 | ATTCCGTG | 0.0974
21 | ACTATCTA | 0.184
22 | CAGAAGAG | -0.189

Row | Sequence | PBM E-score
23 | CCGTCGCG | 0.167
24 | AAATTTGT | -0.19
25 | AGGAAGAT | -0.0453
26 | GAGAAGAC | -0.158
27 | AGACTAAA | 0.0442
28 | CACGCCAG | 0.05
29 | ATCCGAGC | -0.0102
30 | CCACGAAG | 0.0613
31 | CTTTACCA | -0.0566
32 | CCGTGCCG | -0.00022
33 | CGTACAAA | 0.0349
34 | CCTGCCCG | 0.181
35 | AGAATGTG | -0.014
36 | GTGAGATA | 0.141
37 | ATTATAAC | 0.0333
38 | CTGGGCCA | -0.176
39 | CCTGGATC | -0.0366
40 | CTGCGCAG | -0.111
41 | ATCTTCTC | -0.216
42 | CTCACGCA | 0.29
43 | CCATGCCC | 0.0169
44 | ACCCGCAA | -0.102

Row | Sequence | PBM E-score
45 | ACTTGTTA | 0.0328
46 | CGAACCTA | -0.104
47 | GCTGGCAA | 0.115
48 | ATTAGTGC | 0.195
49 | TCAGGCGA | 0.114
50 | CACAGCGG | 0.00366
51 | AATAGGGA | -0.0744
52 | GAACAATA | 0.234
53 | ATGCCAAC | -0.0202
54 | CAACGATA | -0.0603
55 | AAATCTAG | -0.109
56 | GCGACTGA | 0.132
57 | GTGTTAGA | -0.0244
58 | AGGAGTCG | 0.339
59 | CAGCACAG | 0.197
60 | AGATCCGC | 0.086
61 | TGGTAGAA | -0.104
62 | TAAAAGAA | -0.342
63 | CCCTACCG | 0.122
64 | CATACTGC | 0.0888
65 | CAGGCGGG | 0.122
66 | CAAGAATA | 0.037

Row | Sequence | PBM E-score
67 | ATCTACGC | 0.147
68 | CTTCGAAA | -0.164
69 | AAGTGAGG | -0.0839
70 | ACAGTCAT | 0.318
71 | AACAGTCA | 0.192
72 | ACCGCTCC | -0.0967
73 | CGGTAACC | 0.104
74 | AGTGGCAC | -0.1
75 | GTTCAAAC | -0.0829
76 | ATGAAGAG | -0.0404
77 | AAACAGGC | -0.132
78 | GGAGAGAA | 0.00992
79 | AAGAACAA | 0.0412
80 | ATGGTACC | -0.0842
81 | GAACCTGC | -0.0491
82 | AAGCCGTC | 0.0457
83 | ACTGTCAT | 0.173
84 | AGATTTAC | -0.0587
85 | ATGGAAGG | -0.187
86 | GATCCGTA | 0.0828
87 | CCTTGAGC | -0.213
88 | CTTCGATC | -0.0957

Row | Sequence | PBM E-score
89 | TGCACACA | 0.123
90 | CACAACGG | -0.111
91 | CATGGCCG | 0.0355
92 | CGGCGAAA | 0.0392
93 | AATCTTAA | -0.258
94 | CGGGCTGA | 0.104
95 | AGACTTAA | -0.336
96 | AGAAATAA | -0.13
97 | AATGGTGA | 0.157
98 | GCCATAGA | -0.0613
99 | GTGGGCTA | 0.0247
100 | AGAAGTCG | -0.0261
101 | CATGTCTA | 0.0965
102 | ACATGCAT | 0.12
103 | CCCACCGG | 0.1
104 | GTGGATGA | 0.263
105 | ATCCGGAG | 0.0204
106 | CGCCTGTA | -0.197
107 | AATAAATG | 0.0572
108 | AAACAATG | 0.044
109 | CAGCCTGA | 0.0687
